The full ranking holds about 33,000 sequences; the median of “E-score (-0.5 to 0.5)” is about -0.01, and the highest 2% start at about 0.26. The list shows a part of the results.
The sequences below were run against Ste12 (UniProt P13574) (assay: PBM E-score (8-mer binding enrichment) (E-score (-0.5 to 0.5)); higher = stronger / more preferred TF binding; most listed sequences are background and not binding sites). Conditions: protein concentration: 200 nM; construct: GST-DNA-binding domain.
Outline: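 PURExpress in vitro transcription/translation supplied GST-tagged yeast transcription factors, either full-length or DNA-binding domain. Applied at about 100-200 nM to universal all-10-mer Agilent arrays double-stranded by primer extension, the bound protein was detected with fluorescent anti-GST. E-scores, modified Wilcoxon-Mann-Whitney statistics, were given by the Universal PBM Analysis Suite to ungapped eight-base words pooled with their reverse complements after masliner normalisation.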

Sequence	PBM E-score
ATAAGGCA	-0.0946
CTCGTGGA	-0.121
GAGCGTGA	-0.0254
AAGGATCA	-0.147
ATGAAGAC	0.0538
AACTTTAA	0.279
TAGCTGGA	-0.0515
GAATGTCC	-0.147
ATGCGTGC	-0.173
GAAAGCCA	-0.0412
CTGTCACA	0.147
AAAAATTA	0.326
TGCGATAA	0.0796
CGTACACA	-0.111
ATGTCACC	-0.0256
ACGATACC	0.118
CGTGTCTC	-0.0253
AAGCAGAT	0.0182
CGTTGCTC	0.0329
ATCCCGCG	0.204
GTTGTAGA	0.0182
TGCAAACA	-0.0373
ACTAGGCG	0.174
CGAATCGA	0.196
CGAAAAGA	0.242

Sequence	PBM E-score
AAATCGCC	0.018
CAATCAAG	-0.0923
CACAGTTA	0.173
ATGTAGAA	0.141
AGTATTAC	0.0263
ACTCGGGA	0.00069
CGATCCGC	-0.0771
AACGTGGC	0.0443
CAATCTAG	0.00433
CAACCGGA	0.0644
AAGCCCAA	-0.0155
CACAGAGA	0.0895
GCGTGACC	-0.0478
GAATATTC	-0.00905
CGGTAAAA	0.198
GACCTGCC	-0.0264
CACTAACG	-0.0575
CCTTCCTC	-0.155
CACATGTG	-0.137
CATCAACA	0.111
AGACTGGA	-0.0847
AATGTCCG	-0.116
TGAGCTCA	0.0371
CACAAGGC	-0.17
CAGGAGTC	-0.0302

Sequence	PBM E-score
CCTGGCTA	-0.217
AGAAATGG	0.058
CCCTCAGG	-0.135
ATGATGTC	0.0463
ACTGAAAT	0.181
AGTTACTG	-0.129
CACCTAAA	0.0511
AAGCAGTA	0.0143
CATGGTCA	0.049
GCGTAGCC	-0.161
ATCGAGAA	0.16
AGGAGGTG	-0.216
ACAAGCTG	0.0467
CGAGATCC	-0.209
AGAAAGGG	0.0728
GGCTAATA	0.152
CAAGCGCG	0.00382
GTCTTCTA	0.0531
CGCTTTGC	0.0024
CACACGCC	0.158
AGGCGCAT	-0.287
AGTCACGG	-0.0689
CTAATTCC	-0.0281
ACCGCCAT	-0.0412
AAGCCCAC	-0.0847

Sequence	PBM E-score
CTTCGCCA	-0.0108
CAATCATG	0.0722
ACCATGCA	0.0206
GATTCGCA	0.148
GCGAGACA	-0.0151
CAATCATC	-0.0782
AGTTCTGG	0.0162
GACCCGAA	0.00892
CCTAAGGC	-0.258
ACGTCCCG	-0.126
GATAGGCC	-0.234
GATTACCC	0.0298
CAAAATCG	0.0648
CTGGCAGC	0.0431
ACGCGTCC	-0.045
AGCATTTA	0.0171
CGGATCCC	-0.248
AGACTTGC	-0.232
ACAATGGC	0.0105
GTACTGAA	0.129
CTGGCCGA	-0.0768
AACCATAA	0.147
ACCGCACC	0.0603
TCATTCAA	0.189
GGAGTGAA	0.117

Sequence	PBM E-score
GTGTCGGA	0.0796
TAGAAGCA	0.0215
AGGTGTTG	-0.0455
AGCTGAAG	-0.127
AGCACCGC	-0.158
ACTGGGCC	-0.244
AACGGTGC	-0.0574
CGAACCTC	0.108
AAGTGGAA	0.0423
CAGCCTTA	-0.172
CCCAAACC	0.0877
CAATAATA	0.106
ATTTAAAA	0.314
GTCAAGAA	0.165
ATTGTGAC	0.0332
CGCACACG	-0.0244
AGAGTCTA	-0.178
GGGACCTA	0.0802
CTAGCAGA	-0.212
AATCAAGG	-0.0911
CCCGGCAC	-0.137
CCCAAGTA	-0.0167
GTACGCAA	-0.0403
CTGAGGGA	-0.106
GCAGTTTA	0.0336

Sequence	PBM E-score
AGGTTTTC	0.241
AGCCTAGG	-0.187
ACCTTAAA	0.0279
AATTCGGT	0.195
GTACAGCA	-0.0907
ATACACAT	0.0874
ACAGATAC	0.00521
GGCATCAC	-0.235
GGTATCAC	-0.105
ACTTAATC	0.0743
ACGATTGC	-0.0741
GTCAGTCA	-0.119
CTGTATAC	0.00826
GTCACCTA	-0.214
CTCTGCAC	0.0607
AAAGCACT	0.0173
AATACGCC	0.0624
CCGCTATC	0.0754
CGTCCCCA	-0.126
GGATTTGA	0.046
CCATCGCC	-0.216
CACGGTGC	0.101
ACGGGGGA	-0.106
ACGACCCG	-0.11
CCTATACA	-0.0187

Sequence	PBM E-score
AAAGCGAC	0.0447
ATAAAAAG	0.315
GGGAATAA	0.123
ATCGGTCA	0.00948
CATTATCG	-0.05
CTACGTAC	-0.148
ACGGAACC	-0.0567
CTGGTGAA	-0.117
GACGGTTA	-0.0498
GAATAATA	0.286
ACAAGGAT	0.00421
AAATCCTC	-0.0111
ATAACTCC	0.00165
TCGTTGAA	-0.00474
ACTTGTGC	-0.106
CAAAGAGA	-0.00487
AAGGTACA	0.0739
AAAAGTCA	0.099
CGCTAAAG	-0.191
AGATATGC	-0.0615
AAGCGTCC	-0.272
CAGCAGAG	-0.0328
